Results from the supplement of paper PMC9334596.
“And” between values parts separate entries of the source, which are not always exact repeats. Identical values can stand only once. Over roughly 5,300 compounds, “PER2::LUC luminescence relative to vehicle control” has its median near 0.96; the highest 2% begin near 1.3. The list shows a part of the results.

Test system: mPer2Luc MEF
Experiment: PER2::LUC luminescence relative to vehicle control (fold of vehicle); higher = higher PER2::LUC reporter signal
Conditions: 10 µM
In short: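 The value is PER2::LUC luminescence expressed as fold of vehicle control. Mouse embryonic fibroblasts carrying the mPer2Luc reporter were seeded at ~3000 cells per well in 384-well plates and grown in DMEM with 10% FBS at 37 °C and 5% CO2. Compounds from commercial libraries were added at 10 μM 48 h after seeding, and luminescence was read with the ONE-Glo luciferase assay system 24 h and 30 h after treatment, followed by an alamarBlue viability assay.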

Compound	PER2::LUC luminescence (time after treatment 24 h)	PER2::LUC luminescence (time after treatment 30 h)
C#C[C@]1(OC(C)=O)CC[C@H]2[C@@H]3CCC4=CC(=NO)CC[C@@H]4[C@H]3CC[C@@]21CC (mixture of isomers)	0.98	0.991
N[C@H]1C[C@@H]1c1ccc(-c2cccc(O)c2)cc1	1.15	1.08
O=C(Nc1ccc(C(O)(C(F)(F)F)C(F)(F)F)cc1)c1ccc(C(F)(F)F)cc1	0.687	0.47
Clc1ccc(CO/N=C(\Cn2ccnc2)c2ccc(Cl)cc2Cl)c(Cl)c1	0.889	1.15
O=C(O)C1CCCN(CCC=C(c2ccccc2)c2ccccc2)C1 (centres undefined)	1.05	0.977
CC(C)c1cc(-c2n[nH]c(=O)n2-c2ccc3c(ccn3C)c2)c(O)cc1O	0.062	0.052
CC(=O)O[C@]1(C(C)=O)CC[C@H]2[C@@H]3C=C(Cl)C4=CC(=O)[C@@H]5C[C@@H]5[C@]4(C)[C@H]3CC[C@@]21C	1.03	1.11
CCCN(CCc1cccs1)C1CCc2c(O)cccc2C1 (racemic)	0.965	0.906
O=C(O)/C=C/c1ccc(O)c(O)c1	0.886	0.894
CCCCc1nc2cc(/C=C/C(=O)NO)ccc2n1CCN(CC)CC	0.364 and 0.349	0.318 and 0.324
CNCCn1c(=O)c2cc(OC)c(OC)cc2c2cnc3cc4c(cc3c21)OCO4	0.404	0.368
Clc1ccc(Cn2c(CN3CCCC3)nc3ccccc32)cc1	1.06 and 0.848	0.924 and 0.834
COc1cc2nc(N(C)CCCNC(=O)C3CCCO3)nc(N)c2cc1OC (centres undefined)	0.889	0.853
CS(=O)(=O)c1ccc([C@@H](CC2CCCC2)C(=O)Nc2nccs2)cc1	0.951	0.553
C[C@@](N)(C(=O)O)c1ccc(C(=O)O)cc1	1.01	0.938
CCCCCOc1ccc(-c2cc(-c3ccc(C(=O)N[C@H]4C[C@@H](O)[C@@H](O)NC(=O)[C@@H]5[C@@H](O)[C@@H](C)CN5C(=O)[C@H]([C@H](O)CC(N)=O)NC(=O)[C@H]([C@H](O)[C@@H](O)c5ccc(O)c(OS(=O)(=O)O)c5)NC(=O)[C@@H]5C[C@@H](O)CN5C(=O)[C@H]([C@@H](C)O)NC4=O)cc3)no2)cc1	0.871	0.869
CC(=O)O[C@]1(C(C)=O)CC[C@H]2[C@@H]3CCC4=CC(=O)CCC4=C3[C@@H](c3ccc(N(C)C)cc3)C[C@@]21C	0.911	0.861
COc1cc(C)c(Sc2cnc(NC(=O)c3ccc(CNC(C)C(C)(C)C)cc3)s2)cc1C(=O)N1CCN(C(C)=O)CC1 (centres undefined)	0.554	0.433
O=C(O)c1cc(C(F)(F)F)ccc1N1CC[C@H](OCc2ccccn2)C1	1.03	0.99
CC(=O)Nc1nc2c(Oc3cc(-c4ccc(C(F)(F)F)cc4)ncn3)cccc2s1	0.944	0.971
O=C(O)Cc1nn(Cc2ccc(Br)cc2F)c(=O)c2ccccc12	1.1	1.06

Compound	PER2::LUC luminescence (time after treatment 24 h)	PER2::LUC luminescence (time after treatment 30 h)
OCC1OC(n2cnc3c(NC4CCCCC4)ncnc32)C(O)C1O (centres undefined)	0.986	1.02
N[C@@H](Cc1c[nH]c2ccc(O)cc12)C(=O)O	1.08 and 1.02	1.03 and 0.941
CN1C[C@@H]2C[C@H]1CN2c1cc2c(cc1F)c(=O)c(C(=O)O)cn2C1CC1	0.856	0.924
N=C(N)Nc1ccc(C(=O)Oc2ccc3cc(C(=N)N)ccc3c2)cc1	1.05	1
CC(Cc1ccccc1)(NC(=O)CN)c1ccccc1 (racemic)	0.964	1.04
CCCCCCCCCCCCCCCC(=O)OC[C@@H](NC(=O)C(Cl)Cl)[C@H](O)c1ccc([N+](=O)[O-])cc1	1.01	0.952
O=c1cnn([C@@H]2O[C@H](CO)[C@@H](O)[C@H]2O)c(=O)[nH]1	1.41	1.5
CC12C=Cc3occc3C1CCC13CC(=O)C(CCC12)C3 (centres undefined)	0.973	0.929
Nc1cccc2c1C(=O)N(C1CCC(=O)NC1=O)C2=O (centres undefined)	1.1	0.928
COc1cc(O)c(C(=O)c2ccccc2)cc1S(=O)(=O)O	1.13	0.948
Oc1ccc(OC2CCCCO2)cc1 (centres undefined)	1.05	1.01
CNCc1ccccc1	0.963	0.906
C=C1C[C@@]23CC[C@H]4[C@@](C)(CCC[C@@]4(C)C(=O)O)[C@@H]2CC[C@]1(O)C3	0.886	1.12
O=C(O)CCCCCCCCCCCC[C@@H]1C=CCC1	1.04	1.03
COc1cc(OC)c2c(=O)c(O)c(-c3ccc(OC)c(OC)c3)oc2c1	0.853	0.967
CCCCN(CCCC)S(=O)(=O)c1ccc(C(=O)O)cc1	0.899	1.04
COc1cc(C(=O)O)ccc1NC(=O)[C@@H]1N[C@@H](CC(C)(C)C)[C@](C#N)(c2ccc(Cl)cc2F)[C@H]1c1cccc(Cl)c1F	1.26	0.931
COc1cc(O)c(C(C)=O)c(O)c1	0.954	0.96
O=C(O)C(O)Cc1ccc(O)c(O)c1 (centres undefined)	0.979	0.802
Cc1cc(=O)oc2cc(O)c(O)cc12	0.877	0.903
N[C@@H](Cc1cc(I)c(Oc2cc(I)c(O)c(I)c2)c(I)c1)C(=O)O	0.93 and 0.868	1.04 and 1.02

Compound	PER2::LUC luminescence (time after treatment 24 h)	PER2::LUC luminescence (time after treatment 30 h)
CC1(C)CCC(C)(C)c2cc(NC(=O)c3ccc(C(=O)O)cc3)ccc21	1.77	1.63
CN1C[C@H](O)[C@@H](O)[C@H](O)[C@H]1CO	0.613	0.528
N=C(N)NC(=O)Cc1c(Cl)cccc1Cl	0.947	0.943
O=C1Nc2ccccc2/C1=C1/Nc2ccccc2C1=O	1.09	0.954
Clc1ccc(CSC(Cn2ccnc2)c2ccc(Cl)cc2Cl)cc1 (centres undefined)	1.15	1.2
Nc1ncnc2c1ncn2[C@@H]1O[C@H](CO)[C@@H](O)[C@H]1O	1.2	1.05
Cc1cc(C)c(Nc2ccnc(Nc3ccc(C#N)cc3)n2)c(C)c1	0.34	0.433
C[C@@H](NC(=O)c1ncnc(N)c1Cl)c1ncc(C(=O)Nc2cc(C(F)(F)F)c(Cl)cn2)s1	0.835	0.927
COc1ccc2c(c1)OCC(Cc1ccc(O)c(OC)c1)C2=O (centres undefined)	0.989	0.873
C[n+]1cc2c3c(ccc2c2ccc4cc5c(cc4c21)OCO5)OCO3	0.406 and 1.15	0.704 and 1.01
CN(C)CCN(Cc1ccccc1)c1ccccn1	0.928 and 0.986	0.945 and 0.826
CC1CNc2c(cccc2S(=O)(=O)N[C@@H](CCCNC(=N)N)C(=O)N2CC[C@@H](C)C[C@@H]2C(=O)O)C1 (some centres undefined)	1.13	0.967
C=CC1=C(C)c2cc3[nH]c(cc4nc(cc5[nH]c(cc1n2)c(C)c5CCC(=O)O)C(CCC(=O)O)=C4C)c(C)c3C=C	0.988 and 1.03	1.09 and 1.15
CO[C@H]1C[C@@H]2CC[C@@H](C)[C@@](O)(O2)C(=O)C(=O)N2CCCC[C@H]2C(=O)O[C@H]([C@H](C)C[C@@H]2CC[C@@H](OCCO)[C@H](OC)C2)CC(=O)[C@H](C)/C=C(\C)[C@@H](O)[C@@H](OC)C(=O)[C@H](C)C[C@H](C)/C=C/C=C/C=C/1C	0.46	0.491
Fc1ccc(Cl)cc1-c1nc(Nc2ccncc2)c2nccnc2n1	0.671	0.55
Nc1ccn([C@@H]2O[C@H](CO)[C@@H](O)C2(F)F)c(=O)n1	0.545 and 0.575	0.512 and 0.376
CC(O)C(=O)O.N (centres undefined)	0.956	0.88
COc1ccccc1N1CCN(CCN(C(=O)C2CCCCC2)c2ccccn2)CC1	1.26 and 1.11	1.14 and 1.03
CN1C(=O)CC(c2ccccc2)C1=O (centres undefined)	1.01 and 1.03	0.998 and 1.12
CC(=O)O[C@@]12CO[C@@H]1C[C@H](O)[C@@]1(C)C(=O)[C@H](O)C3=C(C)[C@@H](OC(=O)[C@H](O)[C@@H](NC(=O)OC(C)(C)C)c4ccccc4)C[C@@](O)([C@@H](OC(=O)c4ccccc4)[C@H]21)C3(C)C	0.482 and 0.484	0.597 and 0.584
COc1ccc(-c2coc3c(O)c(OC)ccc3c2=O)cc1	1.26	1.11

Compound	PER2::LUC luminescence (time after treatment 24 h)	PER2::LUC luminescence (time after treatment 30 h)
CCNC(=O)c1[nH]nc(-c2cc(Cl)c(O)cc2O)c1-c1ccc(OC)cc1	0.156	0.103
CC(C)c1ccc(NC(=O)Cn2cnc3c2c(=O)n(C)c(=O)n3C)cc1	0.992	1.12
C[C@H](NC(=O)/C(C#N)=C/c1cccc(Br)n1)c1ccccc1	1.06	0.721
Cc1c(C2CCN(CCc3ccccc3)CC2)noc1-c1ccc(Cl)cc1	0.771	0.822
CC(=O)Oc1c(C)c(C)c2c(c1C)CC[C@@](C)(CCC[C@H](C)CCC[C@H](C)CCCC(C)C)O2	1.23	1.05
CCCC(CCC)C(N)=O	0.901	1
C[C@]12CC[C@@H]3c4ccc(O)cc4CC[C@H]3[C@@H]1CC[C@@H]2O	1.08 and 1.1 and 1.05	1.06 and 1.01 and 1.19
CCN(CC)C(=O)c1cccnc1	0.987 and 1.16	0.916 and 1.16
O=c1[nH]c(=S)[nH]c(-c2ccccc2)c1Cc1c(O)ccc2ccccc12	1.16 and 1.02	1.18 and 0.86
CCN(CC)C(=O)c1cccc(C)c1	0.911 and 0.926	0.906 and 0.866
CCCN(CCC)S(=O)(=O)c1ccc(C(=O)O)cc1	0.832	0.861
COc1ccc(C(=C2C(=O)Nc3ccccc32)c2ccc(OC)cc2)cc1	1.05	1.07
CC(C)(C)n1nc(Cc2cccc3ccccc23)c2c(N)ncnc21	0.824	0.874
CCNC(=O)Nc1ccc(-c2nc3c(c(N4CCOC[C@@H]4C)n2)CCN(C2COC2)C3)cc1	0.248	0.271
CC(=O)[C@H]1CC[C@H]2[C@@H]3CCC4=CC(=O)CC[C@]4(C)[C@H]3CC[C@]12C	0.59	0.86
Cn1cc(CNCC2CCN(c3ncc(C(=O)NO)cn3)CC2)c2ccccc21	0.381	0.39
CN(C)CC/C=C1/c2ccccc2Sc2ccc(Cl)cc21	0.996 and 0.712	0.932 and 0.61
CC(=O)O[C@H]1C[C@@H](OC(C)=O)C(C)(C)[C@@H]2C[C@@H](OC(C)=O)[C@]3(C)[C@H](CC[C@@]4(C)[C@H](c5ccoc5)OC(=O)[C@H]5O[C@@]534)[C@@]12C	0.727	0.817
C[C@@H](O)CCCCn1c(=O)c2c(ncn2C)n(C)c1=O	0.991	0.943
